Measured values: US20240173425A1, “HUMAN CD33 ANTIBODIES AND GLUCOCORTICOID CONJUGATES” (Eli Lilly and Company, priority 2022, published 2024)
Substitutions are numbered along the chain they refer to.

B1: Ab1: anti-human CD33 antibody, HC SEQ ID NO: 21 and LC SEQ ID NO: 22, IgG1AAA backbone (antibody)
heavy: [about 100 residues not printed]EYSNYDYWGQGTLVTVSSASTKGPCVFPLAPSSKSTSGGTAALGCLVKDYFPEPVTVSWNSGALTSGVHTFPAVLQSSGLYSLSSVVTVPSSSLGTQTYICNVNHKPSNTKVDKRVEPKSCDKTHTCPPCPAPEAAGGPSVFLFPPKPKDTLMISRTPEVTCVVVDVSHEDPEVKFNWYVDGVEVHNAKTKPREEQYNSTYRVVSVLTVLHQDWLNGKEYKCKVSNKALAAPIEKTISKAKGQPREPQVYTLPPSREEMTKNQVSLTCLVKGFYPSDICVEWESNGQPENNYKTTPPVLDSDGSFFLYSKLTVDKSRWQQGNVFSCSVMHEALHNHYTQKSLSLSPGK
light: DIQMTQSPSSLSASVGDRVTITCQASQDVFRYLNWYQQKPGKAPKLLIYDASNLQTGVPSRFSGSGSGTDFTFTISSLQPEDIATYYCQQYEDLPTFGPGTKVDIKRTVAAPSVFIFPPSDEQLKSGTASVVCLLNNFYPREAKVQWKVDNALQSGNSQESVTEQDSKDSTYSLSSTLTLSKADYEKHKVYACEVTHQGLSSPVTKSFNRGEC
B2: Ab2 GC conjugate (conjugate)
heavy: [about 100 residues not printed]TYSNYDYWGQGTLVTVSSASTKGPCVFPLAPSSKSTSGGTAALGCLVKDYFPEPVTVSWNSGALTSGVHTFPAVLQSSGLYSLSSVVTVPSSSLGTQTYICNVNHKPSNTKVDKRVEPKSCDKTHTCPPCPAPEAAGGPSVFLFPPKPKDTLMISRTPEVTCVVVDVSHEDPEVKFNWYVDGVEVHNAKTKPREEQYNSTYRVVSVLTVLHQDWLNGKEYKCKVSNKALAAPIEKTISKAKGQPREPQVYTLPPSREEMTKNQVSLTCLVKGFYPSDICVEWESNGQPENNYKTTPPVLDSDGSFFLYSKLTVDKSRWQQGNVFSCSVMHEALHNHYTQKSLSLSPGK
light: B1 light with D28P, V29T, R31N
B3: Ab3: anti-human CD33 antibody, HC SEQ ID NO: 9 and LC SEQ ID NO: 15, IgG1AAA backbone (antibody)
heavy: [about 100 residues not printed]TYSNYDYWGQGTLVTVSSASTKGPCVFPLAPSSKSTSGGTAALGCLVKDYFPEPVTVSWNSGALTSGVHTFPAVLQSSGLYSLSSVVTVPSSSLGTQTYICNVNHKPSNTKVDKRVEPKSCDKTHTCPPCPAPEAAGGPSVFLFPPKPKDTLMISRTPEVTCVVVDVSHEDPEVKFNWYVDGVEVHNAKTKPREEQYNSTYRVVSVLTVLHQDWLNGKEYKCKVSNKALAAPIEKTISKAKGQPREPQVYTLPPSREEMTKNQVSLTCLVKGFYPSDICVEWESNGQPENNYKTTPPVLDSDGSFFLYSKLTVDKSRWQQGNVFSCSVMHEALHNHYTQKSLSLSPGK
light: B1 light with D28P, V29T, F30Y, R31I

Columns and labels:
[1] = Thermal stability by Differential Scanning Calorimetry; assay type: physicochemical; details: DSC, PBS, pH 7.2
Protocol: (§1) Aggregation from cell culture: The exemplified anti-human CD33 antibodies were transiently expressed in CHO cells. […] The viscosity for each was measured using VROC® initium (RheoSense) at 15° C. using the average of 9 replicate measurements. […] Concentrated samples were incubated for a period of 4 weeks at 5° C. and 35° C., respectively. Following incubation, samples were analyzed for the percentage of high molecular weight (% HMW) species with size exclusion chromatography (SEC).

CD33 on human monocytes [2] = biological target: T1, CD33 on human monocytes (Homo sapiens, UniProt P20138); test: CD33 cell surface receptor availability post-internalization; assay type: cell-based; details: antibody 30 μg/mL
T1 construct: endogenous in cells; host or cells: primary human PBMCs / monocytes from donor blood
Protocol: CD33 cell surface receptor availability on monocytes after internalization upon binding to the exemplified anti-human CD33 antibodies was evaluated. Briefly, human monocytes isolated from PBMC were seeded at 2×10^4 cells/well in a 96-well plate and incubated on ice for 60 minutes to impede internalization. Exemplified anti-human CD33 antibodies (30 μg/mL) were added to the cells and allowed to bind for 30 minutes on ice. 100 μL culture media was then added to the cells and plates were placed in the incubator for 3.5, 24, 48, 72, and 96-hour timepoints at 37° C. The baseline samples were stained immediately representing the exemplified anti-human CD33 antibody surface binding before internalization. Cells were Fc blocked for 20 minutes, then stained with Alexa Fluor-647 labeled anti-human CD33 exemplified antibodies, Alexa Fluor-700 anti-human CD45 (HI30) and Brilliant Violet-605 anti-human CD11b (ICRF44) for 30 minutes on ice. Cells were analyzed by flow cytometry.

Viscosity (VROC initium) = assay type: physicochemical; details: about 125 mg/mL, 5 mM histidine pH 6, 15° C.
Protocol: as §1

[3] = Aggregation from cell culture and titer after Protein A purification; assay type: physicochemical; details: transient expression in CHO cells
Protocol: as §1

[4] = test system: cynomolgus monkey CD33 ECD 18-232-His; test: Binding affinity and kinetics by surface plasmon resonance (Biacore 8K); details: for ka / kd: cynomolgus monkey CD33 ECD, 37° C., 1:1 binding model
Protocol: (§2) The affinity and binding kinetics of the exemplified anti-human CD33 antibodies to human and cynomolgus monkey CD33 ECD 18-232-His proteins was determined by surface plasmon resonance using Biacore 8K (GE Healthcare). Briefly, per the Instrument Handbook the antibody was captured on a Biacore Protein A chip followed by flowing CD33 ECD from 200 nM down to 0.782 nM in 2-fold serial dilution in PBS-P20-BSA (0.005% surfactant P20, 0.1 mg/mL BSA). All measurements were carried out at 37° C. Multi-cycle kinetics setting that ran each analyte concentration in a separate cycle regenerating the surface after each sample injection was used. The regeneration was optimized to maintain consistent surface properties from cycle to cycle. Each cycle started with a 3 minute injection of 0.1 μg/mL of the antibody at 10 μl/min flow rate, followed by 3 min injection of antigen at 50 μl/min flow rate and a 15 min dissociation phase in PBS-P20-BSA. The chip surface was then regenerated with 30 seconds injection of pH 1.5, 10 mM glycine buffer at 50 μl/min flow rate three times. The data was fit to a 1:1 binding model to derive ka and kd, and to calculate KD.

[5] = biological target: T2, human CD33 ECD 18-232-His (Homo sapiens, UniProt P20138); test: as above; details: 37° C., 1:1 binding model
T2 construct: CD33 ECD 18-232-His proteins
Protocol: as §2

human PBMCs [6] = test: Immune cell depletion, total viable cell count; assay type: cell-based
Protocol: (§3) PBMCs were used to mimic in vivo conditions. […] The cells were then stimulated with LPS (Sigma cat. L2880) at 100 pg/mL in a 37° C. incubator for 24 hours. Culture supernatants were collected to measure the indicated cytokines (Proinflammatory Panel II (human) 4-Plex kits, MSD, K15053D-2).

[7] = test system: primary human monocyte cells; test: Antibody internalization (pHrodo Red, flow cytometry); assay type: cell-based; details: pHrodo-labeled antibodies 10 μg/mL, 2 hours at 37° C.
Protocol: Exemplified anti-human CD33 antibodies were labeled with pHrodo™ Red, amine-reactive dye (Thermo Fisher, P36014). The pH-sensitive dye was a non-fluorescent when outside the cells but fluoresces brightly in acidic low-pH lysosomes. This property allows visualization and qualification of the internalization of an antibody by flow cytometry. Human PBMCs (500 K/well) were incubated on ice in FACS buffer for 30 min, to quiesce baseline internalization. Cells were stained with pHrodo-labeled antibodies (10 μg/mL) in FACS buffer for 1 hour on ice then transferred to 37° C. for 2 hours. Cells were then stained with the remaining panel of surface detection marker: CD45 mAb (clone HI30); CD11b (clone ICRF44); CD14 (clone M5E2).

[8] = Aggregation upon temperature stress (SEC); assay type: physicochemical; details: about 100 mg/mL, 5 mM histidine pH 6.0, SEC
Protocol: as §1

human PBMCs [9] = test: Proinflammatory cytokine modulation in LPS-stimulated PBMCs; assay type: cell-based; details: LPS 100 pg/mL, 24 hours
Protocol: as §3

CD33 on human monocytes [10] = biological target: T1, CD33 on human monocytes; test: Cell surface binding potency, FACS assay; assay type: cell-based; details: human PBMCs, 4° C. for 30 mins
Protocol: Human PBMCs were isolated from human blood samples by standard Ficoll-Paque™ plus (GE […]) density gradient centrifugation methods. Freshly isolated cells PBMCs were resuspended at 2×10^6 cells/mL and allowed to rest for 15 minutes at room temperature, then plated at 100 μL/well into a round bottom 96-well plate (COSTAR®) and washed with FACS buffer (PBS containing 2% fetal bovine serum from Corning®). Exemplified anti-human CD33 antibodies and the respective control IgG antibodies conjugated to Alexa Fluor® 647 according to manufacturer's protocol (Thermo Fisher Scientific) were added to the wells and diluted 4-fold in duplicate. Equivalent volume of 2× antibody cocktail containing: PE-Cy5 anti-human CD14 Antibody (clone M5E2), Per-CP anti-human CD45 Antibody (clone H130), FITC anti-human CD11b (clone ICRF44), and Alexa Fluor-647 anti-human CD66b (G10F5) was then added to the wells. Cells were incubated at 4° C. for 30 mins, washed twice with FACS buffer and resuspended in a final volume of 100 μl FACS buffer. Viability dye, Live/Dead Yellow (Thermo Fisher Scientific, L34968), was added and the samples were analyzed via a flow cytometer (LSRFortessa™ X-20; BD BIOSCIENCES). Data analysis was performed using FlowJo software and statistical analysis was performed using GraphPad Prism 9. Data represents the mean fluorescence intensity (MFI) of CD33 expressing cells from monocytes or neutrophils.

[11] = test system: human plasmacytoid dendritic cells (pDCs); test: Plasmacytoid dendritic cell differentiation assay; assay type: cell-based; details: human PBMCs, IL-3 supplemented media, CpG stimulation
Protocol: The differentiation of pDC was measured by flow cytometry. The functional effects of the pDC were measured by type I IFN (IFNα) production.

T1 sequence (P20138 18-364): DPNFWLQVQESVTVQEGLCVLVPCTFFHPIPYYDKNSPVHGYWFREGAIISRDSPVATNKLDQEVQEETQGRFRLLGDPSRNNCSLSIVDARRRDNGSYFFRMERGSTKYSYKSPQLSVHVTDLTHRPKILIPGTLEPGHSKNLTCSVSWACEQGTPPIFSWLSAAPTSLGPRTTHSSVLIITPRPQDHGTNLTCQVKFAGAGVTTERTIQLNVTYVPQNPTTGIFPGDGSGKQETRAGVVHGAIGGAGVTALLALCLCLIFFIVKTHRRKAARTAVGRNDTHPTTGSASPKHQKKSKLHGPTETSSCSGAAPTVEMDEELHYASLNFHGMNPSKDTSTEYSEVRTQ
T2 sequence (P20138 18-232): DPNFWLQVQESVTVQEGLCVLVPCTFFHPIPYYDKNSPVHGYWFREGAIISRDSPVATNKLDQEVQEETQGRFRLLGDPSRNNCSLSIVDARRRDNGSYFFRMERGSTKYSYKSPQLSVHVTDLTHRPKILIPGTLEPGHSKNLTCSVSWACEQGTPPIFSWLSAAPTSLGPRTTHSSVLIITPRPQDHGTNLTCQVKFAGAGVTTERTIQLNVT

Row | Molecule | Tm2 [1] | Viscosity (Viscosity (VROC initium)) | % HMW species after Protein A chromatography [3] | sCHO titer [3] | ka [4] | kd [4] | ka [5] | kd [5] | % HMW after 4-week incubation at 5° C. [8] | % HMW after 4-week incubation at 35° C. [8] | binding to cell surface CD33 on human monocytes (CD33 on human monocytes [10]) | Tm1 [1] | Tonset [1] | other results
1 | B1 | 79 °C | 5.5 cP | 2.67% | 1.7 g/L | 2550 M⁻¹ s⁻¹ | 0.0615 s⁻¹ | 346000 M⁻¹ s⁻¹ | 118000 s⁻¹ | – | – | – | – | – | % cell surface CD33 positive cells post internalization (CD33 on human monocytes [2]; 3.5 hours): 1.06 ± 0.339%; % cell surface CD33 positive cells post internalization (CD33 on human monocytes [2]; 24 hours): 1.935 ± 0.884%; % cell surface CD33 positive cells post internalization (CD33 on human monocytes [2]; 48 hours): 9.195 ± 1.260%; % cell surface CD33 positive cells post internalization (CD33 on human monocytes [2]; 72 hours): 14.185 ± 1.335%; % cell surface CD33 positive cells post internalization (CD33 on human monocytes [2]; 96 hours): 31.9 ± 2.183%; % cell surface CD33 positive cells post internalization (CD33 on human monocytes [2]; Baseline): 1.1 ± 0.481%; Kd ([4]; unit inferred): 24.1 µM
2 | B2 | 77.0 °C | 7.3 cP | – | – | 1.03e+06 M⁻¹ s⁻¹ | 0.00478 s⁻¹ | 439000 M⁻¹ s⁻¹ | 0.000645 s⁻¹ | 0.95% | 3.08% | bound human CD33 expressed on the monocyte cell surface with desirable binding potency | 64.0 °C | 57.8 °C | Total Viable Cell Count (human PBMCs [6]; LPS Stimulation): 1.57 ± 0.16 ×10^6 cells/mL; Total Viable Cell Count (human PBMCs [6]; No LPS): 1.61 ± 0.07 ×10^6 cells/mL; % Internalization [7]: 86.55 ± 6.859%; % Inhibition of human IL-6 secretion at 200 nM (human PBMCs [9]): 78.604 ± 0.836%; % Inhibition of human TNFa secretion at 200 nM (human PBMCs [9]): 80.469 ± 2.579%; % Inhibition of human IFNα secretion [11]: 95.62 ± 1.57%; % Inhibition of pDC cell differentiation ([11]; flow cytometry): 91.89 ± 6.37%
3 | B3 | 79.68 °C | 7.7 cP | 1.39% | 4.6 g/L | 1.34e+06 M⁻¹ s⁻¹ | 0.00108 s⁻¹ | 570000 M⁻¹ s⁻¹ | 0.000486 s⁻¹ | <0.1% | 1.58% | binding of Ab3 to the monocyte cell surface | 70.93 °C | 64.6 °C | –
